The structures appear in SMILES notation. Out of some 48,000 compounds screened, about 450 (0.94%) were called active. Not shown: some 19% with an inconclusive outcome. The call rests on the fitted dose curve; in most records, active means well fitted inhibition curve with a large enough effect; inconclusive means small, poorly fitted or top-dose-only effect; inactive means no such curve, though single readings can be large or run the other way. This is one part of the list.
Potency means the concentration at half of the fitted maximal effect.

This assay can be described thus: Primary qHTS for Identification of Small Molecule Inhibitors of Huntingtin Promoter Activity. Further: nearly all actives have a fitted effect of over 50% in size. Conditions: HEK293 HTT promoter firefly luciferase reporter (activity 0% = vehicle and -100% = no light), 24 h; series mostly up to 57.5 µM; activity change, negative = inhibition: at the top concentration. The procedure, abridged: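 Quantitative HTS used concentration series of up to 57.5 uM final on HEK293 luciferase reporter cells, 24 h at 37 degrees C. Readout was Dual-Glo firefly luminescence.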
In general terms: Quantitative high-throughput screening tests each substance at several concentrations.
For `Cc1ccc(CNC(=O)c2ccc(CN3CC(=O)N4CCCCC4C3=O)cc2)cc1` (stereo unspecified), the “activity change, negative = inhibition” value was inactive: -19.2%. Still for that read-out and setting: for `CCc1nnc(NC(=O)c2nc(SCc3ccccc3F)ncc2Cl)s1` the value was inactive: -21%; for `COc1ccc(S(=O)(=O)N2CCN(c3cccc(C)c3C)CC2)c2ccccc12`, inactive: -2.55%; for `COc1ccc2c(c1)c(=O)c(C(=O)c1ccc(F)cc1)cn2CC(=O)Nc1ccc2c(c1)OCO2`, inactive: -9.02%. Same read-out and setting: for `Cc1ccc(NC(=O)C2CCN(c3nnc(C)c4c(C)n(-c5ccccc5)nc34)CC2)c(Cl)c1` the value was inactive: -15.1%; for `CC(C)CCNC(=O)Cn1c(-c2cccs2)cc2cc(F)ccc21`, inactive: -21.9%. Take `Cc1cc(Br)ccc1NC(=O)c1sc2nc3n(c(=O)c2c1C)CCCC3`: the “activity change, negative = inhibition” value was inactive: 22.3%. The same measure, in the same setting: next, `COc1ccc(Cl)cc1C(=O)Nc1nnc2n1CCS2`: inactive: -2.23%; `C=Cc1ccc(Cn2c(=O)n(-c3cccc(Cl)c3)c(=O)c3c4c(sc32)CN(C(C)=O)CC4)cc1`: inactive: -36.1%; `COCCCNC(=O)CCn1c(=O)c2ccccc2n(CC(=O)Nc2cc(Cl)ccc2OC)c1=O`: inactive: -5.3%. Still for that read-out and setting: for `CN1C(C(=O)Nc2cccc(O)c2)=CC(c2ccco2)=NS1(=O)=O` the value was inactive: -24.8%. Consider `Cc1cccc(N2CCn3c2nc2c3c(=O)n(C/C=C/c3ccccc3)c(=O)n2C)c1`, for which the “activity change, negative = inhibition” value is inactive: -6.35%. With `CCCCN(CC)c1nc(-c2ccccc2F)nc2ccccc12`, the “activity change, negative = inhibition” value is inactive: -9.09%. Same read-out and setting: for `Cc1cc(C)c(NC(=O)Cn2nnc(S(=O)(=O)c3ccc(C)c(C)c3)c2N)c(C)c1` the value was inactive: -21.3%; for `CC(=O)c1ccc(NC(=O)C2CCN(c3nnc(C)c4c(C)n(-c5ccccc5)nc34)CC2)cc1`, inactive: -9.28%; for `Cc1ccc(-c2cc(C(=O)N3CCN(S(=O)(=O)c4ccc(Br)cc4)CC3)[nH]n2)c(C)c1`, inactive: -4.23%. On the same count and under the same terms, next, `CC(C)OCCCn1c(=O)c2ccccc2n2c(-c3ccccc3)nnc12`: inactive: 0.39%; `O=C(Cc1ccccc1)Nc1sc2c(c1C(=O)Nc1cccc(Cl)c1)CCCCC2`: inactive: -5.62%; `CCc1nn2c(=O)cc(COC(=O)Cc3ccccc3)nc2s1`: inactive: -4.12%. Still for that read-out and setting: for `Cc1ccc(S(=O)(=O)c2cn(Cc3ccccc3)c3cc(N4CCCCC4)c(F)cc3c2=O)cc1` the value was inactive: 9.83%; for `CC(C)CCOc1ccc(Cn2c(=O)oc3ccccc32)cc1`, inactive: 10.2%; for `COc1ccc(NC(=O)CSC2=Nc3ccccc3C3=NC(CC(=O)NCCc4ccccc4)C(=O)N23)cc1` (stereo unspecified), inactive: 3.9%. Take `O=C(NCc1ccco1)c1ccc(Cn2c(SCc3ccccc3)nc3cccnc32)cc1`: the “activity change, negative = inhibition” value was inactive: -9.27%. Same read-out and setting: for `COc1cc(OC)c(NC(=O)CCS(=O)(=O)c2ccc3c(c2)oc(=O)n3C)cc1Cl` the value was inactive: -2.22% [at 11.5 µM]; for `CCc1ccc(CNC(=O)C2COc3ccc(OC)cc3C2)cc1` (stereo unspecified), inactive: -14%. As to `CN(Cc1ccccc1)C(=O)CSc1nnc(-c2cccc(Cl)c2)o1`, the “activity change, negative = inhibition” value is inactive: 1.2%. The same measure, in the same setting: next, `CCOC(=O)c1c(C)sc(-c2c(-c3ccccc3)[nH]c3[nH]c(=O)[nH]c(=O)c23)c1O`: inactive: -9.75%.

As to `COc1ccc(-c2noc(-c3ccc(N4CCOCC4)c([N+](=O)[O-])c3)n2)cc1`, the “activity change, negative = inhibition” value was inactive: -9.1%. On the same count and under the same terms, for `CC1=C(C(=O)Nc2ccccc2C)C(c2cccs2)n2nc(SCc3ccccc3)nc2N1` (stereo unspecified) the value was inactive: -21.1%.

As for `O=C(Cn1ncc2c(Cl)cccc21)NCc1cccc(Cl)c1`, the “activity change, negative = inhibition” value is inactive: -14.2%. `CCc1ccc(-n2nc(CO)c(C(=O)NCCOC)n2)cc1`: the “activity change, negative = inhibition” value is inactive: 28.9%. On the same count and under the same terms, for `Cc1scc(CN2CCN(c3ccccc3F)CC2)c1C` the value was inactive: 0.721%. Same read-out and setting: for `Cc1ccc(CN(C(=O)COc2ccccc2Cl)c2ccccn2)o1` the value was inactive: 38.4%.

On to `Cc1cccc(NC(=O)Cn2c(=O)n(Cc3ccc4c(c3)OCO4)c(=O)c3oc4ccccc4c32)c1C`, for which the “activity change, negative = inhibition” value is inactive: -8.04%. Still for that read-out and setting: next, `Cc1ccc(CNS(=O)(=O)c2ccc(C(=O)N(C)C)s2)cc1`: inactive: -18.9%. As to `CC(C)(C)C1CCc2c(sc(NC(=O)C3c4ccccc4Oc4ccccc43)c2C(N)=O)C1` (stereo unspecified), the “activity change, negative = inhibition” value is inactive: -13.7%. Turning to `CCn1cc(S(=O)(=O)c2cc(C)cc(C)c2)c(=O)c2cc(F)c(N3CCCCC3)cc21`, the “activity change, negative = inhibition” value is inactive: -20.1%. On the same count and under the same terms, for `CCC(=O)N1c2ccc(S(=O)(=O)CCC(=O)NCc3ccccc3OC)cc2CC1C` (stereo unspecified) the value was inactive: 6.54%; for `CC(=O)N1CCc2cc(Br)cc(S(=O)(=O)N3CCC(C(=O)Nc4cccc(C)c4C)CC3)c21`, inactive: 7.54%; for `COC(=O)c1nnn(CC(=O)NC(=O)Nc2ccc(F)cc2)c1C(=O)OC`, inactive: -11.2%. Still for that read-out and setting: for `O=C(Nc1ccc(S(=O)(=O)N2CCC(c3nc4ccccc4s3)CC2)cc1)c1ccccc1` the value was inactive: -0.968%; for `CC1CCCCN1Cc1c(O)ccc2c(=O)c(-c3ccccc3Cl)c(C(F)(F)F)oc12` (stereo unspecified), inactive: -4.38%; for `CCCCn1c(CNC(=O)C23CC4CC(CC(C4)C2)C3)nnc1SCC(=O)Nc1ccc(C)cc1`, inactive: -31.7%. Still for that read-out and setting: next, `COCCSc1nc2c([nH]c3ccccc32)c(=O)n1-c1ccc(OC)c(OC)c1`: inactive: -22.5%. Take `Cc1ccc(C2CC(=O)Nc3cc4c(cc32)OCCO4)cc1Br` (stereo unspecified): the Potency is active: 25.1 µM. Take `CCOc1ccc(CCNC(=O)c2cc(=O)[nH]c3ccc(S(=O)(=O)N4CCCCC4C)cc23)cc1OCC` (stereo unspecified): the “activity change, negative = inhibition” value is inactive: -25.7%.

For `COCCNC(=O)Cn1ccc2cc(S(=O)(=O)N3CCCCCC3)ccc21`, the “activity change, negative = inhibition” value was inactive: -6.81%. Still for that read-out and setting: next, `CCn1c(=O)c2c(nc3n2CCN3c2ccc(OC)cc2)n(C)c1=O`: inactive: 4.42%; `COc1ccc(CNC(=O)CCc2c(C)nc3c(c(C)nn3-c3ccccc3)c2C)cc1`: inactive: -1.27%. Turning to `CCOC(=O)c1c(C)n(-c2ccc(OC)cc2)c2ccc(OC(=O)COc3ccccc3)cc12`, the “activity change, negative = inhibition” value is inactive: -31.2%. On the same count and under the same terms, next, `CN1C[C@H]2c3ccccc3Oc3ccc(Cl)cc3[C@@H]2C1`: “inactive”; `c1ccc([C@H]2CN3CCSC3=N2)cc1`: “inactive”; `CC(C)c1nnc(N2C(=O)c3oc4ccccc4c(=O)c3C2c2ccccc2F)s1` (stereo unspecified): inactive: -10.5% [at 11.5 µM].

As for `CN(C)CC/C=C1\c2ccccc2Sc2ccc(Cl)cc21`, the “activity change, negative = inhibition” value is inactive: -17%. For the compound `Cc1cc2c(cc1S(=O)(=O)Nc1cccc(C#N)c1)OCC(=O)N2`, the “activity change, negative = inhibition” value is inactive: 4.37%. In the case of `O=C(Cn1ncc2c3ccccc3n(Cc3ccccc3F)c2c1=O)NCc1ccccc1Cl`, the “activity change, negative = inhibition” value was inactive: -11.3%. Take `N#Cc1ccc(-c2cccs2)nc1SCc1ccc(Br)cc1`: the “activity change, negative = inhibition” value was inactive: 12.7%.

`COc1ccc(-n2nc(C(=O)N3CCCCC3C)c3c4ccccc4n(C)c3c2=O)cc1Cl` (stereo unspecified): the “activity change, negative = inhibition” value is inactive: 10.2%. The same measure, in the same setting: for `COc1ccc(CNC(=O)CN(C)S(=O)(=O)c2ccc3nc(C)sc3c2)cc1` the value was inactive: -16.6%; for `COc1cccc(C(=O)Nc2ccccc2C(=O)OCc2cc(=O)n3c4c(sc3n2)CCCC4)c1`, inactive: -25.6%; for `Cc1coc2c(C)c3oc(=O)c(CCC(=O)NCCc4ccccc4F)c(C)c3cc12`, inactive: -11.5%.

The values are drawn from PubChem BioAssay AID1508623 (National Center for Advancing Translational Sciences (NCATS), 2021).
